The supplement of paper PMC4967469
By IC50 is meant the dose at which the fit gives 50% viability; fits outside the tested doses are given as limits. For AUC the same curve is integrated over the 256-fold range of doses and scaled to a fraction; the more sensitive the line, the further below 1. An inferred top dose comes from the curve model; the source does not state it. For part of these data: Drugs with an entry number were screened twice under separate entries, and the two screens often disagree.

Assays:
Assay in all cases: Viability of human cancer cell lines after 72 h of drug (GDSC screen)
[1] = compound: C=CC(=O)Nc1cccc(Nc2nc(NC3CCC(N(C)C)CC3)nc3c2ncn3C(C)C)c1 [WZ3105]; settings: top dose inferred
Procedure: (§1)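 Human cancer cell lines in 384-well plates, medium with 10% serum, drug for 72 h over a 256-fold dose range (nine 2-fold or five 4-fold steps up to the top dose). Adherent lines were fixed and stained with the nucleic acid dye Syto60, suspension lines read with resazurin; signal relative to control wells, capped at 0 and 100%. One two-parameter sigmoid per drug and line, fitted in a mixed model over all curves with the slope shared within a line.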

[2] = compound: COc1cc2c(NC3CCN(C(C)C)CC3)nc(C3CCCCC3)nc2cc1OCCCN1CCCC1 [UNC0638]
Procedure: as §1

[3] = compound: Cc1cccc(-c2[nH]c(C(C)(C)C)nc2-c2ccc3c(c2)OCO3)n1 [SB-505124]; settings: top dose 10 µM; top dose inferred
Procedure: as §1

[4] = top dose 20 µM, screen: GDSC drug entry 1236, top dose inferred
[5] = top dose 40 µM, screen: GDSC drug entry 245

Cell Line	AUC [1]	IC50 [1] [nM]	other results
8-MG-BA (glioma, adherent, top dose 1.28 µM)	0.741	372	
22RV1 (prostate, adherent, top dose 1.28 µM)	0.75	510	
42-MG-BA (glioma, adherent, top dose 1.28 µM)	0.891	> 1280	
201T (lung adenocarcinoma, adherent, top dose 1.28 µM)	0.808	878	
451Lu (melanoma, adherent, top dose 1.28 µM)	0.895	> 1280	
639-V (bladder, adherent, top dose 1.28 µM)	0.854	782	
647-V (bladder, adherent, top dose 1.28 µM)	0.841	895	
697 (lymphoblastic leukaemia, suspension, top dose 1.28 µM)	0.457	62.6	
769-P (kidney, adherent, top dose 1.28 µM)	0.916	> 1280	
786-0 (kidney, adherent, top dose 1.28 µM)	0.856	904	
5637 (bladder, adherent, top dose 1.28 µM)	0.706	286	
8305C (thyroid, adherent, top dose 1.28 µM)	0.916	> 1280	
8505C (thyroid, adherent, top dose 1.28 µM)	0.751	444	
23132-87 (stomach, adherent, top dose 1.28 µM)	0.853	1050	
A3-KAW (B-cell lymphoma, suspension, top dose 1.28 µM)	0.758	364	
A4-Fuk (B-cell lymphoma, suspension, top dose 1.28 µM)	0.972	> 1280	
A101D (melanoma, adherent, top dose 1.28 µM)	0.96	> 1280	
A172 (glioma, adherent, top dose 1.28 µM)	0.755	420	

Cell Line	AUC [1]	IC50 [1] [nM]	other results
A204 (rhabdomyosarcoma, adherent, top dose 1.28 µM)	0.735	463	
A253 (head and neck, adherent, top dose 1.28 µM)	0.897	> 1280	
A375 (melanoma, adherent, top dose 1.28 µM)	0.909	1230	
A388 (skin, adherent, top dose 1.28 µM)	0.833	1000	
A427 (non-small cell lung carcinoma, adherent, top dose 1.28 µM)	0.81	680	
A431 (skin, adherent, top dose 1.28 µM)	0.748	398	
A498 (kidney, adherent, top dose 1.28 µM)	0.96	> 1280	
A673 (rhabdomyosarcoma, adherent, top dose 1.28 µM)	0.852	839	
A704 (kidney, adherent, top dose 1.28 µM)	0.989	> 1280	
A2058 (melanoma, adherent, top dose 1.28 µM)	0.903	> 1280	
A2780 (ovary, semi-adherent, top dose 1.28 µM)	0.537	101	
ABC-1 (lung adenocarcinoma, adherent, top dose 1.28 µM)	0.748	485	
ACHN (kidney, adherent, top dose 1.28 µM)	0.977	> 1280	
COR-L32 (small cell lung carcinoma, suspension)			AUC [2, 4]: 0.797; IC50 [2, 4]: > 20000 nM; AUC [3]: 0.867; IC50 [3]: > 10000 nM
H2810 (mesothelioma, adherent)			AUC [2, 4]: 0.803; IC50 [2, 4]: 11100 nM; AUC [3]: 0.984; IC50 [3]: > 10000 nM
K-562 (chronic myeloid leukaemia, suspension)			AUC [2, 4]: 0.845; IC50 [2, 4]: 13700 nM; AUC [2, 5]: 0.711; IC50 [2, 5]: 9620 nM
NCI-H1650 (lung adenocarcinoma, adherent)			AUC [2, 4]: 0.897; IC50 [2, 4]: > 20000 nM; AUC [3]: 0.979; IC50 [3]: > 10000 nM
